Measurements published in the BET-seq Pho4 binding data (Le et al. 2018).
The list shows a part of the results. Values were computed here from the reads of four pooled replicates and scatter widely.

These sequences were tested against T1, Pho4 (S. cerevisiae) (UniProt P07270) (assay: relative binding free energy (BET-seq); higher = weaker binding). Details: reference: library average.
T1 sequence: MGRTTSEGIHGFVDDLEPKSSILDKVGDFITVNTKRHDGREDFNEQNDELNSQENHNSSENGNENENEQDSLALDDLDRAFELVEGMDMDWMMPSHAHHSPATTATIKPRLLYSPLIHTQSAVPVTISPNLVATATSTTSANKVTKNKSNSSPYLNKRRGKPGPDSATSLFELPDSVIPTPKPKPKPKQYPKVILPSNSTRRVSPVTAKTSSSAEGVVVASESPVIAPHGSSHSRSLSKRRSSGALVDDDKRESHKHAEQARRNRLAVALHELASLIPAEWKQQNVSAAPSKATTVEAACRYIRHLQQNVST

Sequence	relative binding free energy [kcal/mol]
GGGGTCACGTGCAGAG	0.12
TCGGACACGTGTTGTA	0.11
GATCTCACGTGGGTGG	0.16
TAGGACACGTGAGGGG	0.24
TTTGGCACGTGAGACG	-0.05
AGGAGCACGTGCTGGG	-0.01
ATTTGCACGTGAAGTT	0.34
GGTAACACGTGTAATG	0.1
TGTTTCACGTGCGATA	0.2
AGAGACACGTGGAGTT	0.09
CGGATCACGTGAGAGT	0.35
ATTGTCACGTGTTCGA	0
CACGGCACGTGTGTTT	-0.05
ATTGTCACGTGATGCT	0.17
TTTGTCACGTGTATTG	0.07
TTAAGCACGTGTACTT	-0.01
CAGATCACGTGAAGGG	0.36
TAGTGCACGTGCATGG	-0.08
CAGTGCACGTGGAGTA	-0.05

Sequence	relative binding free energy [kcal/mol]
AAGTGCACGTGGGTGT	-0.2
TCGTTCACGTGGAGAT	0.29
GAAAGCACGTGGTCGT	-0.09
CAGCGCACGTGTGGGG	-0.13
TCTTTCACGTGAGTCG	0.51
GCATGCACGTGGTTGT	-0.1
TGTAACACGTGGTTTC	-0.05
ATTAGCACGTGTTGGT	0
TTATACACGTGAGGTT	0.24
AAATTCACGTGTTATA	0.17
TTCGACACGTGAGGAG	0.23
TCGATCACGTGGGTAT	-0.04
ATTGGCACGTGCCTGG	-0.17
AGGGTCACGTGTACGG	0.01
TGGGTCACGTGTGTTT	0.21
TAAGACACGTGAAAGT	0.27
CTTGTCACGTGTAGGC	0.25
ACTGGCACGTGAGGCG	0.15
CATTGCACGTGTAGGG	0.06

Sequence	relative binding free energy [kcal/mol]
ATTTTCACGTGTCCGG	0.16
TCTGGCACGTGGGCAG	-0.23
TTTCGCACGTGGGTCA	-0.2
TAGTGCACGTGGGCCT	-0.29
TTTGCCACGTGGGGCA	-0.25
AGAGCCACGTGTTGTA	-0.04
ACTCGCACGTGGGGGG	-0.3
AGCTACACGTGTTTGG	-0.02
TATTTCACGTGTTTAG	0.36
AGGTGCACGTGGGTGA	-0.22
TCGGGCACGTGGTTGC	-0.04
CTATGCACGTGATTAG	0.11
GAATTCACGTGTTGGA	0.32
CTGTCCACGTGGTGGA	-0.03
AGGTCCACGTGAGTAT	0.3
GGTTTCACGTGAGGTT	0.38
ATATTCACGTGGGGGG	0.14
TCTTACACGTGAAGGT	0.37
